Results are given in words; binding and its absence hold for the method and conditions named. Binding seen in cells or lysates may run through a third protein. Some results given as binding are weak or reduced against the parent protein; the word gives no strength. Tags and fused reporters may be left off the sequences shown.
Experiments:
Test in all cases: co-IP; HEK293 co-transfected with GP73 plasmid and Flag-tagged (or indicated) plasmids for 24 h; lysis in 50 mM Tris-HCl, 150 mM NaCl, 1% Triton X-100, 1 mM EDTA, 10% glycerol, pH 7.4; immunoprecipitated with anti-Flag (or IgG), washed with 300 mM NaCl buffer, WB; Fig 3B, 3C, 4C-F, S4B (for Fig 4C-F the antibodies are only 'indicated')
M12 MAVS (1–180/441–540) = M12 MAVS (1–180/441–540) (UniProt Q7Z434)
MAVS (1–467) = MAVS (1–467) (UniProt Q7Z434)
MAVS (361–540) = MAVS (361–540) (UniProt Q7Z434)
M17 MAVS (1–180/468–540) = M17 MAVS (1–180/468–540) (UniProt Q7Z434)
M14 MAVS (1–90/181–540) = M14 MAVS (1–90/181–540) (UniProt Q7Z434)
MAVS (91–540) = MAVS (91–540) (UniProt Q7Z434)
M15 MAVS (1–90/468–540) = M15 MAVS (1–90/468–540) (UniProt Q7Z434)
Flag-TBK1 = molecular target: T1, Flag-TBK1 (UniProt Q9UHD2)
T1 sequence: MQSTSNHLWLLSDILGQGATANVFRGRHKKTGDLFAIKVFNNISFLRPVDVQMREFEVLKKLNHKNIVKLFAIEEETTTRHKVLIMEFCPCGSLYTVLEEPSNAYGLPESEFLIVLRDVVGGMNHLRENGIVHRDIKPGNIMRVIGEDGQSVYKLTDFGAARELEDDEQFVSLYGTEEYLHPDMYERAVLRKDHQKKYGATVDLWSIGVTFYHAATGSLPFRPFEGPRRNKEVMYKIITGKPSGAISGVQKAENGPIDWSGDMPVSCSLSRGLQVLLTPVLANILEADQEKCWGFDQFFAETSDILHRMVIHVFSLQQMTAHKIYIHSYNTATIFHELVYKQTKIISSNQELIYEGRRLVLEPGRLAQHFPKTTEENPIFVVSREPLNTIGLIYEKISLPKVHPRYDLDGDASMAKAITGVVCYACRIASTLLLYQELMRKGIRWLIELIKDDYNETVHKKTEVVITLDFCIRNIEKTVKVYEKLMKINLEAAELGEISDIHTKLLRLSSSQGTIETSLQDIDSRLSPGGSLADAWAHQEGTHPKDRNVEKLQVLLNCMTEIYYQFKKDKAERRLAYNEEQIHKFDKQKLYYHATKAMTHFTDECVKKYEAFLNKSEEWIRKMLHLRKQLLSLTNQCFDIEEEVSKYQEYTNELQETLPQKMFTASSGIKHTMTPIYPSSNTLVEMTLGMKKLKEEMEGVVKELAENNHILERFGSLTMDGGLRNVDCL

The chains behind the UniProt entries cited, without tags or fusion partners. Where a name states a change or a piece, a line headed by the entry shows the natural chain unless it says otherwise. A line that says so, or that is headed by a name, gives the form on record, which may keep a tag or linker. Residues count along the entry.
UniProt Q7Z434: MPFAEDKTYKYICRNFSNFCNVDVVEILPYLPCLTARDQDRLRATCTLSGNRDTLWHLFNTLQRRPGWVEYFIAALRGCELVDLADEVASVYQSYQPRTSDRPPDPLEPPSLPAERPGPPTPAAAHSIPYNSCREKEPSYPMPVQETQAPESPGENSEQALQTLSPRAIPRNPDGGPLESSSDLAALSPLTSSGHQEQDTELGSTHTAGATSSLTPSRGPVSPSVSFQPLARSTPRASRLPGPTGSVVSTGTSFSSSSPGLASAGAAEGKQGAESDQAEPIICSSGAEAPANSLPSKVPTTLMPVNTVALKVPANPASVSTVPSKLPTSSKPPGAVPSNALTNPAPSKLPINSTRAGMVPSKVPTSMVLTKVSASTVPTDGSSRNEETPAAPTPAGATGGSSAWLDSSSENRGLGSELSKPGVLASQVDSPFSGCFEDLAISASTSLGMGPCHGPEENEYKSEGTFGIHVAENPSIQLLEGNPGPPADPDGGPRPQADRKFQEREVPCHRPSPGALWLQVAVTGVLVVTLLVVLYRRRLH
MAVS (1–467): residues 1-467 of Q7Z434
MAVS (91–540): residues 91-540 of Q7Z434
MAVS (361–540): residues 361-540 of Q7Z434
M12 MAVS (1–180/441–540) (Q7Z434, form named): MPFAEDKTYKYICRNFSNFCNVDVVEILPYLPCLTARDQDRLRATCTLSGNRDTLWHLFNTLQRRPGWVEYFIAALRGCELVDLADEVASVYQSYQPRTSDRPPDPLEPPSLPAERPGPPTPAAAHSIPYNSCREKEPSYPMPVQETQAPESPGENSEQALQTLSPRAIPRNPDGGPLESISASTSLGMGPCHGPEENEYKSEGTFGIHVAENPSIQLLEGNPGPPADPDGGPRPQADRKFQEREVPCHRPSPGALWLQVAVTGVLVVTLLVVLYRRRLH
M17 MAVS (1–180/468–540) (Q7Z434, form named): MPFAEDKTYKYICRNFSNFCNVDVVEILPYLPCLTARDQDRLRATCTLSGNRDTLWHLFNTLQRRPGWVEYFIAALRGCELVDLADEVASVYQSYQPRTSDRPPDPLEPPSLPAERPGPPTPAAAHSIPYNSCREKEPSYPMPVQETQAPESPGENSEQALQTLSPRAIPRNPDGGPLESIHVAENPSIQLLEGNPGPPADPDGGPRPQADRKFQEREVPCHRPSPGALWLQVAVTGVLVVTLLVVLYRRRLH
M14 MAVS (1–90/181–540) (Q7Z434, form named): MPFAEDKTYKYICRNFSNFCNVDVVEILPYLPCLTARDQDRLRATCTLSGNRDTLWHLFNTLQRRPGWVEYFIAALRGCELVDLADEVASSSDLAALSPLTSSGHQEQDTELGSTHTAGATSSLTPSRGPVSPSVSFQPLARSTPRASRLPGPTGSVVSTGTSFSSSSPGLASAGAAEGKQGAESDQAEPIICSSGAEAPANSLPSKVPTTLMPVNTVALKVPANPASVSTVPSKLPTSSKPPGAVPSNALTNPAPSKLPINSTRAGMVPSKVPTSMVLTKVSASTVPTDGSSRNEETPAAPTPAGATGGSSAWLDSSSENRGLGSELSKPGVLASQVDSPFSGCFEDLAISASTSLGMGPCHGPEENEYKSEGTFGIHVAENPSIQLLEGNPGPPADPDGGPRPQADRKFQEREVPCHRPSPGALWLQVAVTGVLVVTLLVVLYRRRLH
M15 MAVS (1–90/468–540) (Q7Z434, form named): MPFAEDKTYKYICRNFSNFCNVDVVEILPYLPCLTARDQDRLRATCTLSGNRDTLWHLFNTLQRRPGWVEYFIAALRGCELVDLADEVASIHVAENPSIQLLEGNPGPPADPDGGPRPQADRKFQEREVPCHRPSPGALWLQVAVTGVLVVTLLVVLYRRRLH

binding (M12 MAVS (1–180/441–540)): binds
binding (MAVS (1–467)): no binding
binding (MAVS (361–540)): no binding
binding (M17 MAVS (1–180/468–540)): binds weakly
binding (M14 MAVS (1–90/181–540)): binds
binding (MAVS (91–540)): no binding
binding (M15 MAVS (1–90/468–540)): no binding
binding (Flag-TBK1): no binding
B1: HA-GP73 (Golgi protein 73) (protein, UniProt Q8NBJ4 1-401)
chain: MMGLGNGRRSMKSPPLVLAALVACIIVLGFNYWIASSRSVDLQTRIMELEGRVRRAAAERGAVELKKNEFQGELEKQREQLDKIQSSHNFQLESVNKLYQDEKAVLVNNITTGERLIRVLQDQLKTLQRNYGRLQQDVLQFQKNQTNLERKFSYDLSQCINQMKEVKEQCEERIEEVTKKGNEAVASRDLSENNDQRQQLQALSEPQPRLQAAGLPHTEVPQGKGNVLGNSKSQTPAPSSEVVLDSKRQVEKEETNEIQVVNEEPQRDRLPQEPGREQVVEDRPVGGRGFGGAGELGQTPQVQAALSVSQENPEMEGPERDQLVIPDGQEEEQEAAGEGRNQQKLRGEDDYNMDENEAESETDKQAALAGNDRNIDVFNVEDQKRDTINLLDQREKRNHTL

Source: publication PMC5398727, “GP73 represses host innate immune response to promote virus replication by facilitating MAVS and TRAF6 degradation” (PLoS Pathogens, 2017)
